Measurements reported in patent US20240076343A1 (CEPHALON, published 2024).

T1: high-affinity hIL-2 receptor (IL-2Rαβγ) (human, UniProt P01589 22-272; P14784 27-551; P31785 23-369)
T1 sequence 1: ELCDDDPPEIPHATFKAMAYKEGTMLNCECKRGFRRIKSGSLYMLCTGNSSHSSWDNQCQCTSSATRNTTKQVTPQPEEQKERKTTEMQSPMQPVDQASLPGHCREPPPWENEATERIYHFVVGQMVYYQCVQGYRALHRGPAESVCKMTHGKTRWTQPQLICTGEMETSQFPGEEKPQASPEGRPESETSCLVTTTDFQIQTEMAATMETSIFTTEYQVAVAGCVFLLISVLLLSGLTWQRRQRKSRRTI
T1 sequence 2: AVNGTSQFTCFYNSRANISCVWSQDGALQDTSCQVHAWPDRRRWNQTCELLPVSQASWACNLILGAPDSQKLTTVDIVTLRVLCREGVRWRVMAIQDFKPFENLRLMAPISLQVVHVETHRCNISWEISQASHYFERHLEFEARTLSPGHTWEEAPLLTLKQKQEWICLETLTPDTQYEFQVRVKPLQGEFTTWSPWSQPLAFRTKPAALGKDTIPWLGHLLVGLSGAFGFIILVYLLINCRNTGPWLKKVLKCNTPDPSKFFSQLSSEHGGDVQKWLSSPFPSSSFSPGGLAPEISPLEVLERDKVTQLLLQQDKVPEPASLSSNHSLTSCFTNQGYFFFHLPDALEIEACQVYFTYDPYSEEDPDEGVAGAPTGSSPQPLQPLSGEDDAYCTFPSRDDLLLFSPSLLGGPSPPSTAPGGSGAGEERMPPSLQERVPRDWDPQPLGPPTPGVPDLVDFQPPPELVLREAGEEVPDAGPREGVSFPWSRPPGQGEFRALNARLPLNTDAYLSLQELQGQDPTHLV
T1 sequence 3: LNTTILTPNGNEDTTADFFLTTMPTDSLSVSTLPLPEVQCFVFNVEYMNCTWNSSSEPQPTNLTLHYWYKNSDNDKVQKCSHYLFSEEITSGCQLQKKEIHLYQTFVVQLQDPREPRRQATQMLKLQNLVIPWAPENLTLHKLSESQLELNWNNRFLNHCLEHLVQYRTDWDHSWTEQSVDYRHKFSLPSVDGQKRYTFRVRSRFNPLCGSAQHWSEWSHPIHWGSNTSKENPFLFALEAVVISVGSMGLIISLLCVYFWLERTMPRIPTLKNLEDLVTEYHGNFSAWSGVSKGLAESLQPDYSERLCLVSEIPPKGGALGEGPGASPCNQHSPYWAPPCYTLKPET

T2: intermediate affinity hIL-2 receptor complex (IL-2Rβγ) (human, UniProt P14784 27-551; P31785 23-369)
T2 sequence 1: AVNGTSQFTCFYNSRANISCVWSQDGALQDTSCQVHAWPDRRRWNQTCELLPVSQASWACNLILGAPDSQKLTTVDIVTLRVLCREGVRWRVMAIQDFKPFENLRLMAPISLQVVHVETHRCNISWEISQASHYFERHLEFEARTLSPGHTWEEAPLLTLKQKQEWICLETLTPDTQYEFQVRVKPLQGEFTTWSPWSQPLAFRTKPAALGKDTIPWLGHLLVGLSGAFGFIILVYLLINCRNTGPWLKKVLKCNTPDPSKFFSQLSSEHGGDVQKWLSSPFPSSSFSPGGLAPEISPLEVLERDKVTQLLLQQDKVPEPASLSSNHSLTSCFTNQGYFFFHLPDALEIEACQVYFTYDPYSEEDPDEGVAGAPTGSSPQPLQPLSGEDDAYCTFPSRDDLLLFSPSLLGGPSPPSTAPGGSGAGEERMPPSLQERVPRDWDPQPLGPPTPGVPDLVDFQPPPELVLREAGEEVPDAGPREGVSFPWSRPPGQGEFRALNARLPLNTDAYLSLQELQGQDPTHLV
T2 sequence 2: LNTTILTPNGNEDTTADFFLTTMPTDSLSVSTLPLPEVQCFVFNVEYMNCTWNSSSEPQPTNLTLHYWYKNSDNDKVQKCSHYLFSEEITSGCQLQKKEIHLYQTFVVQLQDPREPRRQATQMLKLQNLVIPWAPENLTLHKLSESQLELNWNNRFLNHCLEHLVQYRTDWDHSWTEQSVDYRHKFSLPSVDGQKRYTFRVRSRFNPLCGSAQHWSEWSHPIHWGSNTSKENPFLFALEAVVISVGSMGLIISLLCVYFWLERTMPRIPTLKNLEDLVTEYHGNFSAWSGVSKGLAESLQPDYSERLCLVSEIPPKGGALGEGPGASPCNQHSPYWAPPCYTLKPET


Key:
[1] = target: T1, high-affinity hIL-2 receptor (IL-2Rαβγ); experiment: cell-based or functional assay
[2] = target: T2, intermediate affinity hIL-2 receptor …; experiment: cell-based or functional assay
[3] = target: T3, human PD-1 on Jurkat cells (Jurkat+hPD-1) (human, UniProt Q15116 in part); experiment: flow cytometry on Jurkat cells expressing hPD-1
T3 construct: extracellular domain and a portion of the transmembrane domain, stably expressed on Jurkat cells
T3 sequence (Q15116 21-185 limits assumed): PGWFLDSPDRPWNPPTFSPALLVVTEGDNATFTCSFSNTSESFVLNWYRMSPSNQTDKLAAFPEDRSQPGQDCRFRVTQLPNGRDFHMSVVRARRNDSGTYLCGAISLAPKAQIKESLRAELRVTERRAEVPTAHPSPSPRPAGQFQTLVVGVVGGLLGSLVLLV

Row | Binder | Fold change from rhIL-2 (NK-92), pSTAT5 titration [1] | Agonistic Activity (TF1 + IL-2Rβ), pSTAT5 titration [2] | EC50 [3]
1 | 1H3-hIgG1-L6-hIL-2 (T3A/D20A/R38E) (other) heavy: EVQLVESGGGLVQPGRSLKLSCAVSGFTFSDYAMAWVRQAPKKGLEWVATISYDGSRTYYRDSVKGRFTISRDNAKITLYLQMDSLRSEDTATYYCARHGSGYFDYWGQGVMVTVSS[not shown - human IgG1 constant region]SGGGGSAPASSSTKKTQLQLEHLLLALQMILNGINNYKNPKLTEMLTFKFYMPKKATELKHLQCLEEELKPLEEVLNLAQSKNFHLRPRDLISNINVIVLELKGSETTFMCEYADETATIVEFLNRWITFCQSIISTLT light: DTVLTQSPALAVSPGERVTISCRASESVRTGVHWYQQKPGQQPKLLIYGASNLESGVPARFSGSGSGTDFTLTIDPVEADDTATYFCQQSWNDPFTFGSGTKLEIKRTVAAPSVFIFPPSDEQLKSGTASVVCLLNNFYPREAKVQWKVDNALQSGNSQESVTEQDSKDSTYSLSSTLTLSKADYEKHKVYACEVTHQGLSSPVTKSFNRGEC | > 10000 fold | 60% | 
2 | C51E6-5-hIgG4-L6-hIL-2 (D20A/R38E) (other, anti-hPD-1 IgG4 with attenuated hIL-2 fused to the heavy chain C-terminus) heavy: QVQLVQSGSELKKPGASVKVSCKASGYSLYGTSMHWVRQAPGQGLEWMGYISPFTGRATYAQGFTGRFVFSLDTSVSTAYLQISSLKAEDTAVYYCARDYDYRYYYAMDYWGQGTTVTVSSASTKGPSVFPLAPCSRSTSESTAALGCLVKDYFPEPVTVSWNSGALTSGVHTFPAVLQSSGLYSLSSVVTVPSSSLGTKTYTCNVDHKPSNTKVDKRV[not shown - about 350 residues with a human IgG4 Fc and changes] light: EIVLTQSPDFQSVTPKEKVTITCTASESVPPQFLHWYQQKPDQSPKLLIYASRERASGVPSRFSGSGSGTDFTLTINSLEAEDAATYYCHQFHRSPLTFGGGTKLEIKRTVAAPSVFIFPPSDEQLKSGTASVVCLLNNFYPREAKVQWKVDNALQSGNSQESVTEQDSKDSTYSLSSTLTLSKADYEKHKVYACEVTHQGLSSPVTKSFNRGEC |  |  | 1.59 nM
3 | 2H7-hIgG4-df-hIL-2 (D20A/R38E) (other, anti-hPD-1 IgG4 with attenuated hIL-2 fused to the heavy chain C-terminus) heavy: EVQLLESGGGLVQPGGSLRLSCAASGFTFKDYCMTWVRQAPGKGLEWVSAIVYSGGSTYYADSVKGRFTISRDNSKNTLYLQMNNLRAEDTAVYYCAKYTRASYFYDAMDVWGQGTTVTVSSASTKGPSVFPLAPCSRSTSESTAALGCLVKDYFPEPVTVSWNSGALTSGVHTFPAVLQSSGLYSLSSVVTVPSSSLGTKTYTCNVDHKPSNTKVDKRV[not shown - about 350 residues with a human IgG4 Fc] light: EIVLTQSPGTLSLSPGERATLSCRASQSIGKSFLAWYQQKPGQAPRLLIYDASTRAADIPARFSGSGSGTDFTLTISSLEPEDFAVYYCQQYYDWPPLSFGGGTKVEIKRTVAAPSVFIFPPSDEQLKSGTASVVCLLNNFYPREAKVQWKVDNALQSGNSQESVTEQDSKDSTYSLSSTLTLSKADYEKHKVYACEVTHQGLSSPVTKSFNRGEC |  |  | 0.195 nM
4 | H7-632-hIgG1-LAGA-df-hIL-2 (T3A/D20A/R38E/C125A) (other, anti-hPD-1 IgG1-LAGA with attenuated hIL-2 directly fused to the heavy chain C-terminus) heavy: EVQLLESGGGLVQPGGSLRLSCAASGFTFKSYAMHWVRQAPGKGLEWVSAIVYSGGSTYYADSVKGRFTISRDNSKNTLYLQMNSLRAEDTAVYYCAKYDRASYFYDAMDVWGQGTTVTVSS[not shown - human IgG1 constant region with L235A G237A (EU numbers)]APASSSTKKTQLQLEHLLLALQMILNGINNYKNPKLTEMLTFKFYMPKKATELKHLQCLEEELKPLEEVLNLAQSKNFHLRPRDLISNINVIVLELKGSETTFMCEYADETATIVEFLNRWITFAQSIISTLT light: EIVLTQSPGTLSLSPGERATLSCRASQSISSSFLAWYQQKPGQAPRLLIYDASDRATGIPDRFSGSGSGTDFTLTISRLEPEDFAVYYCQQYYDWPPLSFGGGTKVEIKRTVAAPSVFIFPPSDEQLKSGTASVVCLLNNFYPREAKVQWKVDNALQSGNSQESVTEQDSKDSTYSLSSTLTLSKADYEKHKVYACEVTHQGLSSPVTKSFNRGEC |  |  | 0.218 nM
